# Screen size: about 420,000 compounds; about 50,000 (12%) were called active. The shares of active, inactive and inconclusive entries below differ from those in the screen. Calls come from the whole dose curve; as a rule, active = well fitted inhibition curve with a large enough effect; inconclusive = small, poorly fitted or top-dose-only effect; inactive = flat fitted curve, though single readings scatter. Potencies of inconclusive entries are left out as doubtful fits.
# Assay: qHTS for Inhibitors of human tyrosyl-DNA phosphodiesterase 1 (TDP1): qHTS in cells in presence of CPT; note: nearly all actives have a fitted effect of over 55% in size
# Conditions: chicken DT40 Tdp1-/-;hTDP1 cells + 20 nM CPT, ATP luminescence, 48 h; activity change, negative = growth inhibition: at 46.2 µM (top of the series) unless noted
# Summary of the method: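 Chicken DT40 Tdp1-/- cells stably complemented with human TDP1 were seeded at 400 cells/well in medium containing 20 nM camptothecin, exposed to pin-transferred compounds, and grown at 37 °C for at least 48 hr. Viability was read as ATP luminescence.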
# % is set by controls: 0 for no effect and ±100 for the full control effect; potency is the fitted concentration of half-maximal effect; tags give direction and shape of the fitted curve.
SMILES,Potency,"activity change, negative = growth inhibition"
Cc1nc2c(OCCOc3ccccc3)cccn2c1N(C)C(=O)CCC1CCCC1,"inconclusive [inhibitor, single point]",
COc1cc(Cl)c(C)cc1Nc1ncccn1,inactive,
Cn1c(=O)[nH]c(=O)c2c1nc(N1CCCCCC1)n2CCSc1nc2ccccc2o1,inactive,
Cc1cccc2cc3c(NC(=O)c4ccccn4)nn(C)c3nc12,"inconclusive [inhibitor, single point]",
COc1cccc(CNC(=O)CCNS(=O)(=O)c2ccc(Br)s2)c1,"inconclusive [inhibitor, single point]",
Cc1cnc(-n2ncc(C(=O)N3CCN(C(C)C)CC3)c2-c2ccco2)nc1-c1ccc(F)cc1,inactive,
COc1cc(C)nc(N2CCCC(C(=O)NCC(C)C)C2)n1 (stereo not given),inactive,
Cc1nn(Cc2ccccc2)c(C)c1NC(=O)CSc1nnc(-c2cc(Cl)ccc2O)n1C,"inconclusive [inhibitor, single point]",
Nc1n[nH]c(C2CC2)c1N=Nc1ccc(Cl)c(Cl)c1,"inconclusive [inhibitor, single point]",
O=C(NCc1ccncc1)C1CCCN(S(=O)(=O)c2cc(Cl)ccc2Cl)C1 (stereo not given),"inconclusive [inhibitor, single point]",
CCCCn1c(-c2ccc(OC)cc2)nc2c(=O)n(C)c(=O)[nH]c21,"inconclusive [inhibitor, single point]",
COc1cccc(C2C3=C(CCCC3=O)Nc3[nH]n(-c4ccccc4)c(=O)c32)c1 (stereo not given),inactive,
CN(CC(=O)Nc1ccc(OC(F)(F)F)cc1)C(=O)/C=C/c1ccco1,"inconclusive [inhibitor, single point]",
Cc1oc(-c2ccccc2)cc1C(=O)Nc1ccc(N(C)C)cc1,"inconclusive [inhibitor, single point]",
COc1cc(C(=O)N(Cc2ccco2)Cc2cc3ccccc3[nH]c2=O)cc(OC)c1OC,"inconclusive [inhibitor, single point]",
Cc1cccc(NC(=O)CCc2c(C)nn(-c3ccc(N4CCCCC4)nn3)c2C)c1,"inconclusive [inhibitor, single point]",
COc1cccc(-c2ccc3c(c2)N(Cc2ccccc2OC)C(=O)C(C)S3)c1 (stereo not given),active: 25.9 µM,
COc1cccc(-n2c(=O)c3c(C)c(C)sc3n(CC(=O)Nc3ccccc3OC)c2=O)c1,inactive,
Cc1cccc(C)c1NC(=O)C(c1ccccc1F)n1c(=O)c(-c2ccccc2)nc2ccccc21 (stereo not given),"inconclusive [inhibitor, partial curve, poor fit]",
CCOc1cccc(C(=O)N(Cc2ccc(N(C)C)cc2)CC2CCCO2)c1 (stereo not given),active: 14.6 µM,
S=c1[nH]nc(COc2ccccc2)n1/N=C/c1ccccc1Cl,inactive,
Cn1c(=O)n(C)c2cc(N3CCOCC3)c(NS(=O)(=O)c3ccc(C(C)(C)C)cc3)cc21,active: 7.31 µM,
Cc1ccc2c(c1)c1c3n2CCN(CCC#N)C3CCC1 (stereo not given),"inconclusive [inhibitor, single point]",

SMILES,Potency,"activity change, negative = growth inhibition"
CC1(c2nnc(-c3cccc(Cl)c3)o2)CC(c2ccccc2F)=NO1 (stereo not given),"inconclusive [inhibitor, partial curve]",
O=C(NCc1cccc(C(F)(F)F)c1)c1ccc2c(c1)OCCO2,inactive,
CN(C)/C=C/C(=O)c1ccc2noc(-c3ccccc3)c2c1,"inconclusive [inhibitor, single point]",
Nc1nc(-c2ccc3c(c2)NC(=O)CO3)cs1,"inconclusive [inhibitor, single point]",
CC1CCN(S(=O)(=O)c2ccc3c(ccc(=O)n3CC(=O)Nc3ccc(C(C)C)cc3)c2)CC1,"inconclusive [inhibitor, partial curve]",
Nc1cccc2c1C(=O)N(Cc1nnc(-c3ccccc3Br)o1)C2=O,"inconclusive [inhibitor, partial curve]",
COCCCNC(=O)CNC(=S)N(Cc1ccc(F)cc1)C1CCCCC1,"inconclusive [inhibitor, single point]",
CSc1nnc(-c2sc3cc(Cl)ccc3c2Cl)n1C,"inconclusive [inhibitor, single point]",
Cc1ccc(-c2nc3ncccn3c2N)cc1,"inconclusive [inhibitor, single point]",
O=[N+]([O-])c1ccccc1/C=N/n1c(C2CCCCC2)n[nH]c1=S,"inconclusive [inhibitor, partial curve]",
COCCN1C(=O)N[C@@H](c2cccc(C(F)(F)F)c2)C(C(=O)OC)=C1C,"inconclusive [inhibitor, single point]",
CCOc1ccc(N(C(=O)c2ccccc2F)S(=O)(=O)c2ccc3c(c2)n(C)c(=O)n3C)cc1,inactive,
CC(C)(C)c1ccc(OCC(=O)N/N=C/C2CC=CCC2)cc1 (stereo not given),"inconclusive [inhibitor, single point]",
Cc1ccsc1CN(C)C(=O)C1CCC(=O)N(CCc2cccc(F)c2)C1 (stereo not given),inactive,
CCCCCCNS(=O)(=O)c1ccccc1Br,"inconclusive [inhibitor, partial curve]",
CC1CCCN(C(=O)c2ccc([N+](=O)[O-])o2)C1 (stereo not given),,inconclusive: -36.8% [inhibitor]
Cc1cc(C)c(S(=O)(=O)Nc2ccccc2-c2ccccc2)c(C)c1,"inconclusive [inhibitor, single point]",
CCn1c(SCC(=O)N/N=C/C(C)=C/c2ccco2)nnc1-c1ccccc1,inactive,
CC(=O)NCCc1nc2ccccc2n1CCCCOc1ccccc1,"inconclusive [inhibitor, single point]",
N#Cc1c(N)n(CCCN2CCOCC2)c2nc3ccccc3nc12,inactive,
CCC(=O)N(c1nnc(SCC(=O)c2ccc[nH]2)s1)C1CC1,inactive,
Cc1nn(-c2ccccc2)c(C)c1/C=N/NC(=O)CSc1nnc(SCc2ccccc2Cl)s1,"inconclusive [inhibitor, single point]",
